Measurements: paper PMC7083937, “The ribosome-associated complex RAC serves in a relay that directs nascent chains to Ssb” (Nature Communications, 2020)
Results are given in words; binding and its absence hold for the method and conditions named. For some of these results: In cells and extracts the contact can be indirect. Some binding calls cover weakened binding; strength is not graded here.

Assays:
[1] = molecular target: T1, nascent Pgk1-100 (100 residues) (S. cerevisiae) (UniProt P00560); assay: cross-linking; as a1, RNCs generated in Ssb1-ΔC23 translation extract
T1 sequence (chain, [35S]-methionine labelled): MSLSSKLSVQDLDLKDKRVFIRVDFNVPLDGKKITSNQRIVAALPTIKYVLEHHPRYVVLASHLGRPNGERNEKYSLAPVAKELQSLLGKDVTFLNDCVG

[2] = molecular target: T1, nascent Pgk1-100 (100 residues) (S. cerevisiae); assay: cross-linking; as a4, ribosome-free extract from Δssz1 (Ssb, Zuo1) added
[3] = molecular target: T2, nascent Pgk1 of 150 residues (S. cerevisiae) (UniProt P00560); assay: cross-linking; as a1, RNCs generated in Δssb1Δssb2 translation extract (Ssb absent)
T2 sequence (chain, [35S]-methionine labelled): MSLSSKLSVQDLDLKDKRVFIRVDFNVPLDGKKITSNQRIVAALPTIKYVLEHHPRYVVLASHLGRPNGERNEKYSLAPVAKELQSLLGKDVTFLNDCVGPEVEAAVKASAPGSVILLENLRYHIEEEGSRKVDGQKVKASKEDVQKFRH

[4] = molecular target: T1, nascent Pgk1-100 (100 residues) (S. cerevisiae); assay: as above
[5] = molecular target: T3, nascent Pgk1-50 (50 residues) (S. cerevisiae) (UniProt P00560); assay: as above
T3 sequence (chain, [35S]-methionine labelled): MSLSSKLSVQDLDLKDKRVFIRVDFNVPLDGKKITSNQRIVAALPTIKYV

[6] = molecular target: T1, nascent Pgk1-100 (100 residues) (S. cerevisiae); assay: cross-linking; RNCs from Δssb1Δssb2Δzuo1Δssz1 translation extract; ribosome-free extract from Δssb1Δssb2 (Zuo1, Ssz1) added before cross-linking
[7] = molecular target: T4, nascent Pgk1-40 (40 residues) (S. cerevisiae) (UniProt P00560); assay: cross-linking; RNCs with [35S]-labelled nascent chains generated in wild type yeast translation extract, isolated by centrifugation; 400 µM BS3, 20 min on ice; denaturing immunoprecipitation with antibodies against Ssb, Zuo1 or Ssz1; autoradiography
T4 sequence (chain, [35S]-methionine labelled): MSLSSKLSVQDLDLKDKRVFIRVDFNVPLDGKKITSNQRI

[8] = molecular target: T5, nascent Pgk1-45 (45 residues) (S. cerevisiae) (UniProt P00560); assay: as above
T5 sequence (chain, [35S]-methionine labelled): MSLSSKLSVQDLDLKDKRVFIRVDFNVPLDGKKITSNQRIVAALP

[9] = molecular target: T2, nascent Pgk1 of 150 residues (S. cerevisiae); assay: condition: only with Ssb present (wild type translation extract); cross-linking; RNCs with [35S]-labelled nascent chains generated in wild type yeast translation extract, isolated by centrifugation; 400 µM BS3, 20 min on ice; denaturing immunoprecipitation with antibodies against Ssb, Zuo1 or Ssz1; autoradiography
[10] = molecular target: T1, nascent Pgk1-100 (100 residues) (S. cerevisiae); assay: as above
[11] = molecular target: T3, nascent Pgk1-50 (50 residues) (S. cerevisiae); assay: as above
[12] = molecular target: T6, ScSsz1, recombinant (S. cerevisiae) (UniProt P38788); assay: co-expression and co-purification; His6-MBP-3C-ScZuo1N construct coexpressed with His6-SUMO-ScSsz1 or ScSsz1mut; ResourceQ and size-exclusion chromatography in 20 mM Hepes/KOH pH 7.5, 120 mM KOAc, 5 mM Mg(OAc)2, 1 mM DTT
T6 sequence: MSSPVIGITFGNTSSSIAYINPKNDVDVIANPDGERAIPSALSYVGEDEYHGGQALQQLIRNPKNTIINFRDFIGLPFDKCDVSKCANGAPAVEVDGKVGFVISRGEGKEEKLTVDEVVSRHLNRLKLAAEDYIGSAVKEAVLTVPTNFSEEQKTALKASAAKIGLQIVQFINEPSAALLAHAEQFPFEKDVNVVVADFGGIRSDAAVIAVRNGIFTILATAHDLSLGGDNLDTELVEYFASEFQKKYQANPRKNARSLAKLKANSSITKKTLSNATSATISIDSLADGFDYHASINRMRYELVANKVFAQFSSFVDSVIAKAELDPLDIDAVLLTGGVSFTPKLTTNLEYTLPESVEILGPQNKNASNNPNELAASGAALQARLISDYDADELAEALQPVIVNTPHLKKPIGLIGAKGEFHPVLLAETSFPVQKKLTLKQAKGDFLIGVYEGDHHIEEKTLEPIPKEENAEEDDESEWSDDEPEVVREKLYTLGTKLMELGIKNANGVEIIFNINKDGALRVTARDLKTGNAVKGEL

[13] = molecular target: T7, ScSsz1mut (ScSsz1 L439S/K440P/I448F/G495K), recombinant (S. cerevisiae) (UniProt P38788); assay: as above
T7 sequence: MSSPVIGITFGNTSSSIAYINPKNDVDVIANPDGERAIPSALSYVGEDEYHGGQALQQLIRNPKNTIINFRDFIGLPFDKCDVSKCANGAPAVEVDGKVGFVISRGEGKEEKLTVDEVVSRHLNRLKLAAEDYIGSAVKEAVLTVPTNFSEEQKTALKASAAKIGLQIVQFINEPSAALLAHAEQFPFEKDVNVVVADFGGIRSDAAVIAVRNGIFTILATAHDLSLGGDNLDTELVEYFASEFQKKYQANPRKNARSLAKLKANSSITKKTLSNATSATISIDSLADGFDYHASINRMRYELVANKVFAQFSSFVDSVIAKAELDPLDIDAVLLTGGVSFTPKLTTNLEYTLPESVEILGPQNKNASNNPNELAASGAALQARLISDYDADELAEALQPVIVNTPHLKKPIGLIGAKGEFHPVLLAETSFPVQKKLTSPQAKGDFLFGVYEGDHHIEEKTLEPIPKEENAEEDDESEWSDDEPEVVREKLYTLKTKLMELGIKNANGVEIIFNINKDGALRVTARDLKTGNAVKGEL

[14] = molecular target: T8, NR-peptide (NRLLLTG) labelled at the N terminus with fluorescein; assay: fluorescence polarisation; fluorescence anisotropy; two-fold serial dilutions of the protein complex mixed 1:1 with 40 nM fluorescein peptide; 20 mM Hepes/KOH pH 7.5, 200 mM KCl, 5 mM MgCl2, 1 mM DTT, 1 µM BSA; room temperature, 30 min; one-site binding fit; affinity called estimated; both purified
T8 sequence (peptide, fluorescein at the N terminus): NRLLLTG

B1: Zuo1 (J-domain protein, Hsp40 subunit of RAC) (protein, UniProt P32527 1-433)
chain: MFSLPTLTSDITVEVNSSATKTPFVRRPVEPVGKFFLQHAQRTLRNHTWSEFERIEAEKNVKTVDESNVDPDELLFDTELADEDLLTHDARDWKTADLYAAMGLSKLRFRATESQIIKAHRKQVVKYHPDKQSAAGGSLDQDGFFKIIQKAFETLTDSNKRAQYDSCDFVADVPPPKKGTDYDFYEAWGPVFEAEARFSKKTPIPSLGNKDSSKKEVEQFYAFWHRFDSWRTFEFLDEDVPDDSSNRDHKRYIERKNKAARDKKKTADNARLVKLVERAVSEDPRIKMFKEEEKKEKERRKWEREAGARAEAEAKAKAEAEAKAKAESEAKANASAKADKKKAKEAAKAAKKKNKRAIRNSAKEADYFGDADKATTIDEQVGLIVDSLNDEELVSTADKIKANAAGAKEVLKESAKTIVDSGKLPSSLLSYFV
For B1, the binding [1] was “binds”, the binding [2] was “binds” and the binding [3] was “binds”. For the same binder, the binding [4] was “binds”, the binding [5] was “binds” and the binding [6] was “binds”. The binding [7] was “binds”, the binding [8] was “binds” and the binding [9] was “no binding”. The binding [10] was “no binding” and the binding [11] was “no binding”.

B2: ScZuo1N (residues 1-50 of ScZuo1) (domain or fragment, UniProt P32527 1-50)
chain: MFSLPTLTSDITVEVNSSATKTPFVRRPVEPVGKFFLQHAQRTLRNHTWS
B2 was tested, and the binding [12] was “binds”.

B3: ScZuo1NΔLP (residues 10-50 of ScZuo1) (domain or fragment, UniProt P32527 10-50)
chain: DITVEVNSSATKTPFVRRPVEPVGKFFLQHAQRTLRNHTWS
B3 was tested, and the binding [12] was “binds” and the binding [13] was “binds”.

B4: ScSsz1-Zuo1N complex (ScSsz1 with ScZuo1N residues 1-50) (complex, UniProt P38788 1-538; P32527 1-50)
chain 1: MSSPVIGITFGNTSSSIAYINPKNDVDVIANPDGERAIPSALSYVGEDEYHGGQALQQLIRNPKNTIINFRDFIGLPFDKCDVSKCANGAPAVEVDGKVGFVISRGEGKEEKLTVDEVVSRHLNRLKLAAEDYIGSAVKEAVLTVPTNFSEEQKTALKASAAKIGLQIVQFINEPSAALLAHAEQFPFEKDVNVVVADFGGIRSDAAVIAVRNGIFTILATAHDLSLGGDNLDTELVEYFASEFQKKYQANPRKNARSLAKLKANSSITKKTLSNATSATISIDSLADGFDYHASINRMRYELVANKVFAQFSSFVDSVIAKAELDPLDIDAVLLTGGVSFTPKLTTNLEYTLPESVEILGPQNKNASNNPNELAASGAALQARLISDYDADELAEALQPVIVNTPHLKKPIGLIGAKGEFHPVLLAETSFPVQKKLTLKQAKGDFLIGVYEGDHHIEEKTLEPIPKEENAEEDDESEWSDDEPEVVREKLYTLGTKLMELGIKNANGVEIIFNINKDGALRVTARDLKTGNAVKGEL
chain 2: MFSLPTLTSDITVEVNSSATKTPFVRRPVEPVGKFFLQHAQRTLRNHTWS
With B4 the binding [14] was “no binding”.

B5: ScSsz1-Zuo1NΔLP complex (ScSsz1 with ScZuo1NΔLP residues 10-50) (complex, UniProt P38788 1-538; P32527 10-50)
chain 1: MSSPVIGITFGNTSSSIAYINPKNDVDVIANPDGERAIPSALSYVGEDEYHGGQALQQLIRNPKNTIINFRDFIGLPFDKCDVSKCANGAPAVEVDGKVGFVISRGEGKEEKLTVDEVVSRHLNRLKLAAEDYIGSAVKEAVLTVPTNFSEEQKTALKASAAKIGLQIVQFINEPSAALLAHAEQFPFEKDVNVVVADFGGIRSDAAVIAVRNGIFTILATAHDLSLGGDNLDTELVEYFASEFQKKYQANPRKNARSLAKLKANSSITKKTLSNATSATISIDSLADGFDYHASINRMRYELVANKVFAQFSSFVDSVIAKAELDPLDIDAVLLTGGVSFTPKLTTNLEYTLPESVEILGPQNKNASNNPNELAASGAALQARLISDYDADELAEALQPVIVNTPHLKKPIGLIGAKGEFHPVLLAETSFPVQKKLTLKQAKGDFLIGVYEGDHHIEEKTLEPIPKEENAEEDDESEWSDDEPEVVREKLYTLGTKLMELGIKNANGVEIIFNINKDGALRVTARDLKTGNAVKGEL
chain 2: DITVEVNSSATKTPFVRRPVEPVGKFFLQHAQRTLRNHTWS
With B5 the binding [14] was “no binding”.
